# Data: the supplement of paper PMC3334620
# Whole data set: some 33,000 sequences, median “E-score (-0.5 to 0.5)” near -0.053, cut for the highest 2% near 0.37. This is one part of the list.
# Target: Hap1 (UniProt P0CE41)
# Experiment: PBM E-score (8-mer binding enrichment) (E-score (-0.5 to 0.5)); higher = stronger / more preferred TF binding; most listed sequences are background and not binding sites
# Conditions: protein concentration: 200 nM; construct: GST-DNA-binding domain
# Experimental: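 Universal 'all 10-mer' protein binding microarrays (Agilent AMADID 015681) probed with GST-tagged S. cerevisiae TFs (full-length or DBD) made by in vitro transcription/translation (PURExpress), about 100-200 nM. Bound TF was detected with fluorescent anti-GST. Each ungapped 8-mer (which stands for itself and its reverse complement) is scored by the PBM enrichment score (E-score), a modified Wilcoxon-Mann-Whitney statistic from -0.5 to +0.5, computed with the Universal PBM Analysis Suite. Scale: above 0.35 generally sequence-specific binding.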
# Chain of UniProt P0CE41 (P0CE41 whole entry): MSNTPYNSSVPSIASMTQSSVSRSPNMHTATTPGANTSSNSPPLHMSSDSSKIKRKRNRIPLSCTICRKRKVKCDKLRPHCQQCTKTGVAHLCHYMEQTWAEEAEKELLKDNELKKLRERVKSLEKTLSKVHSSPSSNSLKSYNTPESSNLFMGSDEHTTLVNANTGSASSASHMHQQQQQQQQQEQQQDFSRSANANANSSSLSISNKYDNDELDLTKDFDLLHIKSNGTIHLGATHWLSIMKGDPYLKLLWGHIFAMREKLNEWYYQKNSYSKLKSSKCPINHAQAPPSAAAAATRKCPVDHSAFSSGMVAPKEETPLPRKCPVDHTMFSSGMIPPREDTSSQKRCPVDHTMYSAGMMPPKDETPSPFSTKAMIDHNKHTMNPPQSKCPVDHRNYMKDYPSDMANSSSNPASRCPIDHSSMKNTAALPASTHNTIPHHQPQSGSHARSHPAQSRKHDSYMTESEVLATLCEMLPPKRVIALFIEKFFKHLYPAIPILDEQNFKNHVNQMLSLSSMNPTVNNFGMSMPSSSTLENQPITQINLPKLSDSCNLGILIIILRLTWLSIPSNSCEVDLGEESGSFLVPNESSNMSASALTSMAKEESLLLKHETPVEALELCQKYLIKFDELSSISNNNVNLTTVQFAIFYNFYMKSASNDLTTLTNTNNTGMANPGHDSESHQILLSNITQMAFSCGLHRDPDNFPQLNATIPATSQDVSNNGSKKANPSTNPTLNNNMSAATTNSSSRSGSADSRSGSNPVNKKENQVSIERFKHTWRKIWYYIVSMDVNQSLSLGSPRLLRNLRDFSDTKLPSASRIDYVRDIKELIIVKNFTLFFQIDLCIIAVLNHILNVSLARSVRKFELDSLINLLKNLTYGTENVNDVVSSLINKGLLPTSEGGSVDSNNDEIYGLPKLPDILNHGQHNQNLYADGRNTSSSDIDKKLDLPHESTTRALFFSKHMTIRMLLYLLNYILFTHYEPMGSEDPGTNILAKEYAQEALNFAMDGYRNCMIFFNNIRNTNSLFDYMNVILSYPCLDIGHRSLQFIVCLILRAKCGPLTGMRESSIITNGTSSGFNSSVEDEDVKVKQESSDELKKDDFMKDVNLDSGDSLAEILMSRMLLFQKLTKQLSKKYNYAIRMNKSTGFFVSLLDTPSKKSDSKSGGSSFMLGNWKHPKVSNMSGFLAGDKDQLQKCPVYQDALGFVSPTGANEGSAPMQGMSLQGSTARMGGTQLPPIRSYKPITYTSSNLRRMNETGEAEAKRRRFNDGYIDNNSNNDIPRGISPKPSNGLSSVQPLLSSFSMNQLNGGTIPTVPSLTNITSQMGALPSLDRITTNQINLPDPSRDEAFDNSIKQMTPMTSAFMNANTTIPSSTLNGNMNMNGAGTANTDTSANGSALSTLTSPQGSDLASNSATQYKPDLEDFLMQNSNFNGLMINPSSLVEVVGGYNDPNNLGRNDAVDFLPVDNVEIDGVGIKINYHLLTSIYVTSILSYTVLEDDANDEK
row,Sequence,PBM E-score
1,CTGCGGCC,0.203
2,CTTAAAAC,0.0669
3,CATTAAAG,-0.212
4,CGCCGGCG,0.422
5,CGCTAGAC,-0.137
6,AATCGGGT,0.286
7,ACAACACC,-0.133
8,AAAATGAG,-0.207
9,CACAGGGG,-0.347
10,CACTGTGC,-0.00691
11,AATGACGG,0.167
12,TGCGAACA,-0.0771
13,GGGGAAGA,-0.148
14,ATCGCTAG,-0.00216
15,ACCATCCC,0.0956
16,CTTCCCTA,-0.131
17,ACTCCAAA,-0.255
18,AGTTGCCA,-0.163
19,CCTGTCGA,-0.198
20,CTGGTAAC,-0.0808
21,AGCCGCTG,0.0301
22,ACCCGTGA,0.0171
23,CACCTTCA,-0.0777
24,CTGCTAAC,-0.13
25,ACCACACC,0.119

row,Sequence,PBM E-score
1,AAGGAGGT,-0.00559
2,GGGACCCC,-0.0966
3,CTCCTCGC,-0.202
4,AGCCGCTC,0.161
5,ATATGCGG,0.136
6,CAAGTACC,0.0674
7,AGCGCCAT,-0.113
8,ACGGAGTG,0.242
9,AGATCCCT,-0.163
10,AACTCTAG,-0.336
11,AGGTCGGC,0.263
12,AGTATTTC,0.116
13,GATTCTCC,0.104
14,ATGACCGG,0.276
15,TATGTGGA,-0.0574
16,CCCCTGAC,-0.0366
17,AAACTCGT,-0.144
18,CCCTTCAA,-0.134
19,ACTCGAGC,-0.0948
20,TAGGAGAA,-0.341
21,AAATCGGT,0.246
22,AAACTGAG,-0.18
23,AACGATCA,-0.183
24,CAGTTAGC,-0.15
25,GTGGCCGA,0.263

row,Sequence,PBM E-score
1,GTGGATTA,-0.0512
2,AGCAGGAC,-0.0234
3,CACTCAGA,-0.156
4,GCACCCAC,-0.0345
5,AATCTGGG,-0.175
6,ATAAGCGG,0.118
7,AAGGGGAA,-0.239
8,AGCTAGGA,-0.253
9,AACAGACT,-0.15
10,ACTAGGAT,-0.125
11,CCCGTACC,0.155
12,AAGACAGT,0.01
13,AGTAGAAG,-0.263
14,ACAGGGGC,-0.163
15,CAGTGGTA,-0.222
16,CCCCGAAC,0.291
17,GTGGTTTA,0.0602
18,CAGAGCGA,0.0204
19,AGGGGCGA,-0.0313
20,TTATTCAA,-0.08
21,CCTCGCAA,-0.159
22,ACATCTAA,-0.117
23,GCGCGCCA,0.0961
24,AACCCTCG,-0.0146
25,AGTCAAAT,-0.31

row,Sequence,PBM E-score
1,ATGATAGG,-0.126
2,AGGGTCCA,0.059
3,GCATACGC,-0.0271
4,AGCAGTAA,-0.0328
5,CGCTTCAC,-0.227
6,GGGGAACA,0.0352
7,ATACCCGA,0.398
8,AGAGTAGG,-0.0868
9,ACTCTTGC,-0.101
10,CGACCCAA,-0.023
11,GAATTGTC,-0.0245
12,ATCTGAGG,-0.16
13,CTCCCGCC,0.137
14,AGCAGAGG,-0.325
15,ACGTTCTC,-0.142
16,CAGTTACG,-0.117
17,TCCAGAAA,-0.23
18,ATGCTATC,-0.00371
19,CTAAGTGA,0.0523
20,ACTGTGAA,-0.234
21,CAAGGCGA,-0.16
22,CACTTGCA,-0.255
23,GGTGAGAA,0.0984
24,ACTCGATC,-0.0127
25,AGGAAACG,-0.124

row,Sequence,PBM E-score
1,CCCGTAAC,0.149
2,TGAGGCAA,-0.183
3,ACTCTATG,-0.063
4,ACGGTCAG,-0.109
5,CTCCGGAG,0.467
6,ACATTGAG,-0.0854
7,GACTTAGA,-0.278
8,CACCCTTC,0.0613
9,TTACATAA,-0.113
10,TCCGCGGA,0.342
11,CAACAAAA,-0.215
12,AAACGCCC,0.263
13,ATGCATCA,-0.0887
14,CACAACTC,-0.108
15,CAAACAAG,0.0314
16,GCATCTCA,-0.259
17,ATACAAGG,0.00348
18,GCAGCGCA,-0.198
19,CTTTATCA,-0.226
20,ACCGGCAA,0.272
21,GACGACAC,-0.0269
22,CAGATGAA,-0.3
23,AACAGCCG,0.149
24,ACAGCATA,-0.104
25,AGTTTACC,0.0378

row,Sequence,PBM E-score
1,CAAAGGGG,-0.115
2,AGATTCAG,-0.117
3,CCTAGGCC,-0.148
4,AGCCAGCG,-0.122
5,CGGAGTGA,0.267
6,ACTCTCCT,-0.0997
7,AATGTCAG,-0.181
8,CAAAGATC,-0.0994
9,ACTCTCTA,-0.271
10,GCCGACGC,0.245
11,ATCCTAAT,-0.118
12,ATCATCTA,-0.0863
13,ACCCAGCA,0.00442
14,CACCCAGA,-0.205
15,CCTTGTTC,-0.052
16,CATTGGCG,-0.188
17,ATAGTGAC,-0.0461
18,GCAGCGAA,-0.0326
19,ATTCTAGG,-0.167
20,AGGAACAG,-0.352
21,CTACAGAC,-0.2
22,ATGTTTTC,-0.00321
23,ATCAAATA,-0.0946
24,GATGTGCA,-0.104
25,ATGGTTGC,-0.211

row,Sequence,PBM E-score
1,ATGACGTA,-0.199
2,CAAGAACG,-0.0631
3,ACTTAACA,-0.0435
4,ACAAAGCA,-0.0801
5,AGCTCACG,-0.0873
6,CGCTACAC,0.053
7,ATACCTGC,-0.135
8,ATCGTAAT,0.0647
9,CCATTCAA,-0.16
10,AGCTAATG,-0.112
11,CGAGACAA,-0.131
12,GGAGACAC,0.122
13,CACTATAC,-0.157
14,AATGTGTA,-0.309
15,AGGGACGG,-0.0072
16,CGCCGCGC,0.147
17,TATCGCAA,0.0843
18,CAGAAGCC,-0.0458
19,GAGTGAAC,-0.0567
20,ACAGCGTA,-0.0549
21,GAAGGACA,0.0299
22,ACTCTACG,-0.109
